Source: PubChem BioAssay AID1508623 (National Center for Advancing Translational Sciences (NCATS), 2021)
In all, about 48,000 compounds went through this assay and about 450 (0.94%) were called active. Not shown: some 19% with an inconclusive outcome. Calls come from the whole dose curve; as a rule, active = well fitted inhibition curve with a large enough effect; inconclusive = small, poorly fitted or top-dose-only effect; inactive = no such curve, though single readings can be large or run the other way. The list shows a part of the results.

Assay: Primary qHTS for Identification of Small Molecule Inhibitors of Huntingtin Promoter Activity; note: nearly all actives have a fitted effect of over 50% in size
Conditions: HEK293 HTT promoter firefly luciferase reporter (activity 0% = vehicle and -100% = no light), 24 h; series mostly up to 57.5 µM; activity change, negative = inhibition: at the top concentration
Method in brief: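 HEK293 Fluc reporter, 2,500 cells/well, 24 h pre-culture; cpds up to 57.5 uM final, 24 h 37 degrees C; Dual-Glo, 10 min RT; normalized vehicle = 0%, zero RLU = -100%.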

Activity change, negative = inhibition, inactive:
Cc1cccc(C(=O)NCc2nc3ccccc3n2Cc2ccccc2Cl)c1 -8.08%
O=C(Nc1cccc(OCc2cc(=O)n3ccccc3n2)c1)Nc1cccc(C(F)(F)F)c1 27.9%
COc1cccc(NC(=O)Cn2c(=O)n(Cc3ccc(C(=O)NCc4ccc(C)cc4)cc3)c(=O)c3ccccc32)c1 2.03%
CCOC(=O)c1c(C)n(-c2ccccc2)c2ccc(OC(=O)c3c(F)cccc3F)cc12 -9.7%
CCOc1ccc(Cn2c(CNS(=O)(=O)c3ccc(C(C)(C)C)cc3)nc3cccnc32)cc1 -17.9%
CCOc1ccc(CNC(=O)C2=Cc3cccc(OC)c3OC2)cc1 43.8%
COc1ccc(CCNC(=O)C2c3ccccc3C(=O)N2Cc2ccccc2)cc1OC (stereo unspecified) -7.3%
Cc1ccccc1OCC(=O)Nc1ccc2nc(SCC(=O)N3CCOCC3)sc2c1 -21.4%
CCOc1ccc(NC(=O)CCNS(=O)(=O)c2cccs2)cc1 11.5%
Cc1cc(Nc2ccccc2O)nc(C)n1 -4.01%
Cc1ccc(C)c(S(=O)(=O)n2nc(C)c(S(=O)(=O)N3CCCCCC3)c2C)c1 -13.3%
COc1ccc(NC(=O)CCCN2C(=O)CCn3nc(-c4cn(C)c5ccccc45)cc32)cc1 -23.2%
Cc1cccc(C)c1-n1ncc(C(=O)NCCN2CCN(C)CC2)c1C1CCN(C(=O)OC(C)(C)C)CC1 -23.2%
CCOc1ccc(C(=O)NCc2nc(-c3ccc(Cl)cc3)no2)cc1OCC 4.71%
CCN(Cc1ccccc1)S(=O)(=O)c1ccc(F)c(C(=O)Nc2cc(C)ccc2OC)c1 -7.02%
COC(=O)c1sc2cccc(F)c2c1S(=O)(=O)N1CCN(c2cccc(C)c2)C(C)C1 (stereo unspecified) -23.4%
CC1CCc2c(sc(NC(=O)CCCOc3ccccc3)c2C(N)=O)C1 (stereo unspecified) 0.582%
CC(C)(C)OC(=O)N1CCC(c2c(C(=O)N3CCN(C(=O)c4ccco4)CC3)cnn2-c2ccc(F)cc2F)CC1 -10.5%
CCCOC(=O)c1c(NC(=O)c2cc3ccccc3c(=O)o2)sc2c1CCC(C)C2 (stereo unspecified) -14%
COc1ccc(-c2cn3c(C)c(C(=O)Nc4cc(C)cc(C)c4)sc3n2)cc1 -29.8%
CCOC(=O)c1cnc2c(Cl)cc(Cl)cc2c1Nc1ccccc1OC -2.52%
Cc1ccc(-c2nnc3c4ccccc4c(C)nn23)cc1NC(=O)c1ccccc1 11.2%
COC(=O)c1ccc(Cn2nnc3c(=O)[nH]c(C4CCCN(S(=O)(=O)c5ccccc5Cl)C4)nc32)cc1 (stereo unspecified) -7.74%
CCc1cccc(NC(=O)CN(C)S(=O)(=O)c2ccc3[nH]c4c(c3c2)CCCC4)c1 -24.5%
CCc1ccccc1-n1c(N)c(C(=O)OC)c2nc3ccccc3nc21 -21.2%
COc1cc(NC(=O)c2nnn(CC(=O)Nc3cc(C)ccc3C)c2N)cc(OC)c1 -10.1%
CCOc1cc(C(=O)Nc2ccc3c(c2)n(C)c(=O)c(=O)n3C)cc(OCC)c1OCC -3.1%
CCOc1ccc(-n2c(SCC(=O)Nc3ccc(CC)cc3)nc3c(oc4ccccc43)c2=O)cc1 -14.6%
CCOC(=O)CCc1c(C)nc2cc(-c3cc(OC)cc(OC)c3)[nH]n2c1=O 6.87%
COc1cc(NC(=O)c2cc(-c3cccc(OC)c3)n[nH]2)cc(OC)c1 2.43%
CCOC(=O)c1c(C)oc2ncnc(Nc3cc(C)cc(C)c3)c12 7.96%
O=C(NCCc1csc2nc(-c3ccccc3F)nn12)C(=O)Nc1cc(F)ccc1F 11.9%
COc1ccc(CNC(=O)c2cnn3c(C)c(Cc4c(F)cccc4Cl)c(C)nc23)cc1 -30.3%
COc1cc(O)cc(O)c1 10.2%
Cc1cccc(N2CCN(C(=O)c3cnc(N4CCCC4)nc3C)CC2)c1C -26.8%
COc1ccc(C2c3c(n(C)c4ccccc34)C(=O)N2CC(=O)Nc2cccc(Cl)c2C)cc1 (stereo unspecified) -16.2%
CC1CCCN(C(=O)Cn2ncc3c([nH]c4ccccc43)c2=O)C1 (stereo unspecified) -3.03%
CCCCOc1ccc(C(=O)NCc2nnnn2-c2ccc(C)c(C)c2)cc1 -5.91%
COC(=O)c1c(NC(=O)/C(C#N)=C/c2ccccc2)sc2c1C(C(=O)OC)CC2 (stereo unspecified) -19.4%
CCc1ccccc1NC(=O)Cn1c(=O)ccc2cc(S(=O)(=O)N3CCCC3)ccc21 -23.5%
CCOC(=O)N1CCc2c(sc3c2c(=O)n(-c2ccc(CC)cc2)c(=O)n3C)C1 1.63%
Cc1ccccc1OCC(=O)N1CCC(c2nc3ccccc3s2)CC1 -29.4%
COc1ccc(C(=O)c2c(N)c(C(=O)Nc3cccc(OC)c3)c3ccccn23)cc1 -13%
Cc1c(C(=O)N(C)C)sc2c1c(=O)n(-c1ccc(Cl)cc1)c(=O)n2CC(=O)C(C)(C)C -1.53%
Cc1ccc(NC(=O)Cn2nc(N3CCN(c4ccccc4)CC3)ccc2=O)cc1F 0%
COc1ccc(-n2c(=O)c3sc4ccccc4c3n(Cc3ccccc3C)c2=O)cc1OC -9.11%
CCC1CCCCN1S(=O)(=O)c1cc2c3c(c1)CC(=O)N3CCC2 (stereo unspecified) -25%
COc1ccc(S(=O)(=O)N2Cc3ccccc3CC2C(=O)Nc2ccc(C)cc2C)cc1OC (stereo unspecified) -25%
CCOC(=O)c1c(C)[nH]c(C)c1S(=O)(=O)N1CCC(C(=O)NCc2cccc(OC)c2)CC1 -10.7%
CCC(C(=O)O)n1ccc2cc(S(=O)(=O)N3CCCCC3)ccc21 (stereo unspecified) -10.7%
CC(=O)c1ccc(NC(=O)CCc2c(C)nn(-c3ccc(N4CCOCC4)nn3)c2C)cc1 10.4%
Cc1cc(C)c(S(=O)(=O)NCCc2cc3ccc(C)c(C)c3[nH]c2=O)c(C)c1 -10.6%
O=c1c2sc3ccccc3c2n(Cc2cccc(Cl)c2)c(=O)n1Cc1ccco1 -25.3%
Cc1cc(C)cc(-n2c(C)nc3cc(C(=O)O)ccc32)c1 -3.85%
COc1ccc(-c2noc(-c3ccc(NCc4cccnc4)c([N+](=O)[O-])c3)n2)cc1OC 0.292%
Cc1cccc(OCc2nc(CC(=O)Nc3ccc(C)c(C)c3)cs2)c1 -14.4%
CCCn1c(CN2CCN(c3ccc(OC)cc3)CC2)nc2c1c(=O)[nH]c(=O)n2C -12%
COc1cc(-c2cc3n(C)c(C)c(CCC(=O)O)c(=O)n3n2)cc(OC)c1OC 1.3%
Cc1cc2oc(C(=O)Nc3ccc(S(=O)(=O)N(C)Cc4ccccc4)cc3)cc(=O)c2cc1C -21.7%
CC(C)CC(=O)Nc1nnc(S(=O)(=O)N(CC(C)C)c2ccccc2)s1 -12.3%
Cc1ccc(CNC(=O)CCC(=O)N2CC3CCCN3c3ccccc32)cc1 (stereo unspecified) 0.24%
Cn1c(=O)c2c(ncn2CC2OCCO2)n(C)c1=O -1.85%
CCc1ccccc1N1CC(c2nc3ccccc3n2CCCOc2ccc(Cl)cc2)CC1=O (stereo unspecified) 16%
CCOc1ccccc1NC(=O)Cn1c(=O)n(CCC(=O)NCc2ccc3c(c2)OCO3)c(=O)c2ccccc21 1.06%
COc1cc(OC)c(NC(=O)c2csc3c2CCC(C)C3)cc1Cl (stereo unspecified) 1.99%
COc1ccccc1CNC(=O)c1cc2cc3ccc(Cl)cc3nc2o1 0.224%
COc1ccc(CCNC(=O)CCc2c(C)nc3c(c(C)nn3-c3ccc(C)c(C)c3)c2C)cc1OC -15.1%
COc1ccccc1N1CCN(c2ccc(NC(=O)c3ccc(C)cc3)cc2C(=O)O)CC1 -19.8%
Cc1c(CNC2CCCCC2)c(C(=O)O)c(C)n1Cc1c(F)cccc1Cl -10.7%
Cc1ccc(NC(=O)CCCn2c(=O)c3cccn3c3ccccc32)c(Cl)c1 28.9%
O=C(CCOc1ccccc1)N(Cc1cccnc1)c1nc2c(F)cc(F)cc2s1 -25.3%
COc1cc(OC)c(NC(=O)N2CCSc3ccccc32)cc1Cl -27.5%
COc1ccc(CNC(=O)c2cnc3sc(N4CCOCC4)nn3c2=O)cc1 1.24%
COc1ccc(C(=O)Nc2cc3c(cc2C(=O)c2ccccc2Cl)OCCO3)cc1 -11.8%
O=C(CSC1=Nc2ccccc2C2=NC(CCC(=O)NC3CCCCC3)C(=O)N12)Nc1cccc(C(F)(F)F)c1 (stereo unspecified) -30.6%
CCOc1ccc(NC(=O)CCc2c(C)nc3nc(C)nn3c2C)cc1 12.9%
CCOC(=O)c1c(C)oc2nc(C)nc(NCCCN3CCN(c4ccccc4)CC3)c12 -12.3%
COC(=O)C(CCSC)NC(=O)C1CCN(c2ncnc3c2nc2n3CCCCC2)CC1 (stereo unspecified) 10.8%
Fc1ccc(-n2ncc3c(NC4CCCCCC4)ncnc32)cc1 14%
CCNC(=O)CC1C(=O)N(c2ccc(F)cc2)C(=O)N1CCOC (stereo unspecified) -11.3%
COc1ccccc1CNC(=O)c1ccc(Cn2c(SCc3ccccc3)nc3cccnc32)cc1 -14.1%
CCOc1ccc(C(=O)N2CCC(c3nnc(-c4ccccc4OC)o3)CC2)cc1 2.96%
CCCCCCCC(=O)OCC(COC(=O)CCCCCCC)OC(=O)CCCCCCC -4.02%
O=C(CCc1ccccc1)NCc1nc2cccnc2n1Cc1ccc(F)cc1 -9.14%
CCOC(=O)N1CCc2c(sc3c2c(=O)n(-c2ccccc2)c(=O)n3CC(=O)Nc2ccc(OC)cc2OC)C1 -5.17%
COc1ccc(NC(=O)CN2CCN(Cc3ccccc3)S2(=O)=O)c(OC)c1 -1.31%
CCOc1ccc(OCC)c(NC(=O)c2cc(S(=O)(=O)N3CCCC3)cn2C)c1 -7.37%
COc1ccc(NC(=O)Cn2c(=O)n(Cc3ccco3)c(=O)c3sc4ccccc4c32)cc1Cl -15%
Cc1ccc(N2CCn3c2nc2c3c(=O)n(Cc3cccc(Cl)c3)c(=O)n2C)cc1C -3.31%
O=c1c(-c2ccc(O)cc2)coc2cc(OC3O[C@H](CO)[C@H](O)[C@H](O)[C@H]3O)cc(O)c12 (stereo partly specified) 10.7%
O=C(Nc1ccc(Cl)cc1)c1ccc2c(c1)N(Cc1ccccc1)CCS2 -22%
O=C(CN1C(=O)CCSc2ccc(S(=O)(=O)N3CCCC3)cc21)Nc1ccccc1Cl -8.41%
CCN(C(=O)CSc1nc2ccccc2nc1Cc1ccccc1OC)c1ccccc1 0.775%
CCCC12CN3CC(CCC)(CN(C1)C3c1c[nH]c3ccc(OC)cc13)C2=O (stereo unspecified) -13.8%
Cc1nc(CC(=O)Nc2ccc(C(N)=O)cc2)cs1 2.24%
CCSC1=NC2(CCN(C(=O)NC3CCCCC3)CC2)N=C1c1ccc(OC)cc1 -33.8%
